What was measured:
human Y2 receptor [1] = assay: Unmasking of surface human Y2 receptor in adherent CHO cells; type: cell-based
human Y2 receptor [2] = details: three experiments

C[C@@H]1CC[C@@]2(OC1)O[C@H]1[C@@H](O)[C@H]3[C@@H]4CC[C@H]5C[C@@H](O[C@@H]6O[C@H](CO)[C@H](O[C@@H]7O[C@H](CO)[C@@H](O)[C@H](O[C@@H]8OC[C@@H](O)[C@H](O)[C@H]8O)[C@H]7O[C@@H]7O[C@H](CO)[C@H](O)[C@H](O[C@@H]8O[C@H](CO)[C@@H](O)[C@H](O)[C@H]8O)[C@H]7O)[C@H](O)[C@H]6O)[C@H](O)C[C@]5(C)[C@H]4CC[C@]3(C)[C@H]1[C@@H]2C [digitonin]
increase of labeling of adherent confluent Y2-CHO cells (human Y2 receptor [1]; 30 μM agent, 20 min at 37 °C, 50 pM [^125I] hPYY(3-36), human, at least three experiments): about 4 fold

CCCCCCCCCCCCCCCCCCOC[C@H](COP(=O)([O-])OCC[N+](C)(C)C)OC [edelfosine]
concentration at which Y2 unmasking saturates (human Y2 receptor [1]; adherent Y2-CHO cells): about 60 μM

CCN1C(=O)C=CC1=O [NEM, N-Ethylmaleimide]
sites unmasked, relative to sites made accessible by PAO (human Y2 receptor [1]; NEM at 30 μM, adherent hY2-CHO cells): less than 50%

CCCCC[C@@H](O)[C@H]1C(=O)O[C@H](C)[C@@H](O)/C=C/C=C/C=C/C=C/C=C(\C)[C@@H](O)C[C@H](O)C[C@H](O)C[C@H](O)C[C@H](O)C[C@H](O)C[C@@H]1O [filipin III]
concentration already causing loss of sites in mechanically dispersed cells (human Y2 receptor [2]): 6 µM
